Data: PubChem BioAssay AID588855 (National Center for Advancing Translational Sciences (NCATS), 2011)
In all, about 410,000 compounds went through this assay and about 5,000 (1.2%) were called active. Inconclusive results, whose numbers are uncertain, are shown with a selection of clear calls. The call rests on the fitted dose curve; in most records, active means well fitted inhibition curve with a large enough effect; inconclusive means small, poorly fitted or top-dose-only effect; inactive means no such curve, though single readings can be large or run the other way. Potencies beside an inconclusive call are fits to weak or partial responses and may not hold up.

Assay: qHTS for Inhibitors of TGF-b; further: nearly all actives have a fitted effect of over 65% in size
Conditions: HepG2 CAGA-GFP TGF-b/SMAD3 reporter, GFP fluorescence, 18 h, TGF-beta stimulated, 500 pg/mL final; series mostly up to 46.1 µM; activity, negative = inhibition: at the top concentration
How it was run: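 Inhibition was scored as loss of TGF-beta-induced (500 pg/mL final, 18 hours, 37 degrees C) GFP in HEPG2 cells carrying a CAGA-GFP reporter, in DMEM with 1% FBS. Well GFP was summed per cell; Activity was normalised to unstimulated and stimulated DMSO wells, then concentration-response fitting.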
On the % scale 0 is the no-effect control and ±100 the full control effect; potency means the concentration at half of the fitted maximal effect; tags describe the fitted curve by direction and shape.

Structure (SMILES)	activity, negative = inhibition	Potency
C[n+]1c2n(c3ccccc31)N=C(c1ccc(Cl)cc1)CS2	inactive: 0%	–
Nc1ccccc1SC1CC(=O)N(c2ccc3c(c2)OCCO3)C1=O (stereo unspecified)	inactive: -1.17%	–
CCN1C(=O)/C(=C\N2CCN(c3ccc(F)cc3)CC2)SC1=S	inactive: 23.2%	–
CC1CCc2c(sc(NC(=O)Cc3ccccc3)c2C(=O)Nc2ccc(Cl)cc2)C1 (stereo unspecified)	inactive: -4.09%	–
O=C(Nc1cccc(S(=O)(=O)N2CCCCC2)c1)c1ccc2c(=O)n3c(nc2c1)CCCCC3	–	inconclusive: 7.94 µM [inhibitor, partial curve, poor fit]
C=C(C)C(=O)Oc1ccc(N=Nc2ccc(C)cc2)ccc1=O	–	inconclusive: 11.2 µM [inhibitor, partial curve]
COc1ccc(C(C#N)N2CCC(c3ccccc3)=N2)cc1 (stereo unspecified)	inactive: 0%	–
CCc1ccc(-c2csc3nc[nH]c(=O)c23)cc1	inactive: 3.99%	–
O=C(CCc1ccccc1)NCC(=O)N/N=C/c1ccc(O)cc1O	–	inconclusive: 35.5 µM [inhibitor, single point]
N#C/C(=C(/O)CCl)c1nc(-c2ccccc2)cs1	–	inconclusive: 17.8 µM [inhibitor, partial curve, poor fit]
CCCn1c2ccccc2c2cnn(CC(=O)Nc3cc(C)c(Cl)cc3OC)c(=O)c21	inactive: -1.67%	–
O=C(NCc1ccncc1)C(=O)NCC(c1ccco1)N1CCN(c2ccc(F)cc2)CC1 (stereo unspecified)	inactive: -3.31%	–
COc1ccc(CN(C)CC(O)COC(c2ccc(OC)cc2)c2ccc(OC)cc2)cc1 (stereo unspecified)	–	inconclusive: 35.5 µM [inhibitor, single point]
CN(C)S(=O)(=O)c1ccc(NCC2COc3ccccc3O2)c([N+](=O)[O-])c1 (stereo unspecified)	–	inconclusive: 35.5 µM [inhibitor, single point]
O=C(Cn1ncc2c([nH]c3ccccc32)c1=O)NCCCN1CCN(c2ccc(F)cc2)CC1	inactive: -11.2%	–
CCCOc1ccc(C2C(=O)N(C3CCCCCC3)CC(=O)N2Cc2ccccc2OC)cc1OC (stereo unspecified)	–	inconclusive: 35.5 µM [inhibitor, single point]
CCN(CC)C(=O)C1=C(C)N(Cc2ccc(C(C)(C)C)cc2)C(=O)C(CC(=O)NCCCCc2ccccc2)C1 (stereo unspecified)	–	active: 14.1 µM
Cc1cccc(NC(=S)NCC(C)CSc2ccc(Cl)cc2)c1 (stereo unspecified)	–	active: 12.6 µM
CCOC(=O)/C(C#N)=C/c1c(N2CCCCCC2)nc2ccccn2c1=O	inactive: 0.387%	–
CCCCNC(=O)C1CCCN(S(=O)(=O)c2c(C)noc2/C=C/c2cccs2)C1 (stereo unspecified)	–	inconclusive: 35.5 µM [inhibitor, single point]
CC(C)CN(C(=O)CSc1ncnc2ccccc12)C1CCS(=O)(=O)C1 (stereo unspecified)	–	inconclusive: 35.5 µM [inhibitor, single point]
O=C(NCC1COc2ccccc2O1)c1cccc(S(=O)(=O)N2CCOCC2)c1 (stereo unspecified)	inactive: 9.88%	–
COc1ccccc1NC(=S)NC(=O)/C=C/c1ccco1	–	inconclusive: 35.5 µM [inhibitor, single point]
CSc1sc(C(=O)NN)c2c1C(O)CCC2 (stereo unspecified)	–	inconclusive: 35.5 µM [inhibitor, single point]

Structure (SMILES)	activity, negative = inhibition	Potency
CCCCN(CCCC)S(=O)(=O)c1ccc(C(=O)Nc2nnc(CSC)o2)cc1	–	inconclusive: 12.6 µM [inhibitor, partial curve, poor fit]
CCCc1nc(SCC(=O)Nc2ccccc2)c2c(=O)n(C)c(=O)n(C)c2n1	inactive: -7.83%	–
CCN(CC(=O)Nc1cc(C)nn1-c1nc(C)cc(C)n1)Cc1ccccc1	–	inconclusive: 10 µM [inhibitor, partial curve]
COc1ccc(C(=O)C2CCCN(S(=O)(=O)c3ccc(C(C)=O)cc3)C2)c(C)c1 (stereo unspecified)	inactive: -26.2%	–
CSc1cccc(NC(=O)CN(c2cccc(C)c2)S(C)(=O)=O)c1	inactive: 5.87%	–
COc1ccc(CCC(=O)NCCc2csc(-c3ccc(F)cc3)n2)cc1	–	active: 8.91 µM
O=C(CCc1ccccc1)Nc1ncc([N+](=O)[O-])s1	–	inconclusive: 17.8 µM [inhibitor, partial curve, poor fit]
CCOC(=O)c1ccc(CC(=O)c2oc3cc(O)ccc3c2C)o1	–	inconclusive: 35.5 µM [inhibitor, single point]
CCOC(=O)c1ccc(NCCOC)c([N+](=O)[O-])c1	inactive: 0%	–
O=C(COC(=O)c1ccc(F)cc1Cl)NC1CC1	–	inconclusive: 0.1 µM [inhibitor, full curve, poor fit]
COc1ccc(N2CCN(C(=O)COc3cccc4ccccc34)CC2)cc1	–	inconclusive: 0.224 µM [inhibitor, full curve, poor fit]
CCOc1cccc(-c2nnc3sc(COc4ccc(Cl)cc4)nn23)c1	inactive: -6.64%	–
COc1cc2c(cc1OC)CN(C(=O)c1ccc(Cl)c(S(=O)(=O)N3CCCC3)c1)CC2	inactive: -24.1%	–
N#C/C(=C\c1cn(Cc2ccc(C#N)cc2)c2ccccc12)C(=O)NCc1cccs1	–	inconclusive: 17.8 µM [inhibitor, single point]
CCOC(=O)C1CCCN(CC(=O)Nc2c(C(=O)OC)[nH]c3ccc(Cl)cc23)C1 (stereo unspecified)	inactive: -3.88%	–
COc1cccc(-c2cc(NC=O)c3ncc(-c4cccc(C(=O)NCCN(C)C)c4)n3c2)c1	–	inconclusive: 35.5 µM [inhibitor, single point]
COCCOC(=O)c1[nH]c2c(c1C)C(=O)CC(c1cccs1)C2 (stereo unspecified)	–	inconclusive: 35.5 µM [inhibitor, single point]
COc1cc(C(=O)NC(C)c2ccc(-n3ccnc3)cc2)cc(OC)c1C (stereo unspecified)	–	inconclusive: 14.1 µM [inhibitor, single point]
CC(C)c1nnc(NC(=O)c2c(O)c3cccc4c3n(c2=O)CCC4)s1	inactive: -11%	–
CCOC(=O)N1CCC(N2Cc3cccc(C(=O)Nc4ccc(N(CC)CC)cc4C)c3C2=O)CC1	inactive: 0.887%	–
Cc1ccc(CNc2ccc3c(c2)ncn3C(C)C)cc1	inactive: -25.3%	–
COc1ccc(C(=O)/C=C/c2ccc(C)cc2)c(OC(=O)c2ccc([N+](=O)[O-])cc2)c1	inactive: 8.21%	–
COc1ccc(OC)c(Nc2cc(C)c3ccccc3n2)c1	–	inconclusive: 22.4 µM [inhibitor, single point]
Cc1ccccc1NC(=O)Cn1cc(C(=O)c2ccco2)c2ccccc21	inactive: 7.71%	–

Structure (SMILES)	activity, negative = inhibition	Potency
O=C(c1ccccn1)N(Cc1ccco1)C1(C(=O)Nc2ccc(Br)cc2)CCCCC1	–	inconclusive: 8.91 µM [inhibitor, partial curve, poor fit]
CS(=O)(=O)N1CCC(C(=O)N2CCN(c3ccccc3F)CC2)CC1	–	inconclusive: 35.5 µM [inhibitor, single point]
Cn1ccc2c(-c3ccc4c(c3)OCCO4)cc3c(c21)C1CCC3C1 (stereo unspecified)	–	inconclusive: 22.4 µM [inhibitor, single point]
Cc1ccc(Cl)cc1-c1ccc(C=Nc2ccc(N3CCOCC3)cc2)o1	–	active: 11.2 µM
O=C(c1ccc(Cl)c(Cl)c1)N1CCN(Cc2ccc3c(c2)OCO3)CC1	–	inconclusive: 20 µM [inhibitor, single point]
CC(C)CC(=O)Nc1cccc2c1C(=O)N(c1ccccc1)C2=O	inactive: 6.88%	–
COc1ccc(Br)cc1/C=C/C(=O)Nc1c(C)cccc1C	–	inconclusive: 17.8 µM [inhibitor, single point]
COc1ccc(C(=O)CN2CCN(c3cc(C)nc4ccccc34)CC2)cc1	–	inconclusive: 35.5 µM [inhibitor, single point]
COc1cc2c(cc1NC(=O)C(C)Sc1ccc(NC(C)=O)cc1)oc1ccccc12 (stereo unspecified)	–	inconclusive: 20 µM [inhibitor, single point]
COc1ccc(-c2c(C#N)c(SCC(=O)c3cc4ccccc4oc3=O)nc(C)c2C(=O)Nc2ccccc2)cc1	–	inconclusive: 11.2 µM [inhibitor, partial curve, poor fit]
CCOc1ccc(-c2nc(N)ncc2-c2ccc(Cl)cc2)c(O)c1	–	inconclusive: 35.5 µM [inhibitor, single point]
COc1ccc(CCN(C)C(=O)COC(=O)/C=C/c2ccc(C)o2)cc1OC	–	inconclusive: 5.62 µM [inhibitor, single point]
Cc1cc(OCC(=O)Nc2ccc(N3CCN(C(=O)c4ccco4)CC3)cc2)cc(C)c1Cl	–	inconclusive: 0.631 µM [inhibitor, full curve, poor fit]
C=CCn1c(SCC(=O)Nc2ccc(-c3nc4ccc(C)cc4s3)cc2)nnc1-c1ccccc1	–	inconclusive: 3.16 µM [inhibitor, single point]
CCc1cccc(NC(=O)CCn2c(=O)c3cccn3c3cccnc32)c1	–	inconclusive: 0.112 µM [inhibitor, full curve, poor fit]
CC(=O)c1ccc(NC(=S)Nc2cccc3cnccc23)cc1	–	inconclusive: 8.91 µM [inhibitor, partial curve]
CCCOCc1ccc(O)c2ncccc12	–	inconclusive: 3.55 µM [inhibitor, single point]
CC1CCCC(C)N1CC(O)COC1CCC(C(C)(C)C)CC1 (stereo unspecified)	–	inconclusive: 25.1 µM [inhibitor, single point]
Cc1cc(C)c(N(CC(=O)NCc2ccccc2)C(=O)c2csnn2)c(C)c1	inactive: 5.36%	–
O=C(C=Cc1cccs1)c1ccc(Cl)s1	–	inconclusive: 17.8 µM [inhibitor, single point]
CCCCC(=O)Nc1ccc2nc(SCC(=O)N3CCc4ccccc43)sc2c1	inactive: 8.86%	–
Cc1ccc(-c2ccc(CN3C(C)C(=O)N(Cc4cn(Cc5ccco5)nn4)CCS3(=O)=O)cc2)c(C)c1 (stereo unspecified)	–	inconclusive: 20 µM [inhibitor, single point]
COc1ccc(NC(=O)C2CCCC2)cc1S(=O)(=O)N1CCOCC1	–	inconclusive: 35.5 µM [inhibitor, single point]
